# The supplement of paper PMC12217912
# The other results are listed elsewhere or left out. The full chains were built here from the parent and the listed change. Values near 0.05 are background.
# B1: TEV protease; numbered along this chain (parent)
# chain: MGESLFKGPRDYNPISSSICHLTNESDGHTTSLYGIGFGPFIITNKHLFRRNNGTLVVQSLHGVFKVKDTTTLQQHLVDGRDMIIIRMPKDFPPFPQKLKFREPQREERICLVTTNFQTKSMSSMVSDTSCTFPSGDGIFWKHWIQTKDGQCGSPLVSTRDGFIVGIHSASNFTNTNNYFTSVPKNFMELLTNQEAQQWVSGWRLNADSVLWGGHKVFMVKPEEPFQPVKEATQL
# Variants of: B1
# Assay: raw area under fraction-flipped curve 0-4 h after induction (AUC4h, not background-subtracted), DNA-recorder readout of cleavage of the substrate (dimensionless); higher = more cleavage of the substrate by the protease variant
# Conditions: temperature: 34 °C; time window: 0-4 h after rhamnose induction
# Protocol: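 In vivo DNA recorder in E. coli TOP10(DE3) ΔrhaA at 34 °C. Each TEVp single-site mutant (parent TEVp 0) is paired with a single-site variant of the 7-mer TEVs (canonical ENLYFQ|S). The substrate sits between flexible linkers in a Bxb1-sfGFP-TEVs-SsrA fusion, so cleavage stabilises Bxb1 and speeds flipping of a recombination array, read by NGS. The value is the raw area under the fraction-flipped curve over 0-4 h after rhamnose induction (AUC4h), with ≥20 reads per time point. It is not background-subtracted; inactive controls average about 0.047.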
# 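Note: Bxb1 expression induced with 0.2% (w/v) L-rhamnose at OD600 near 0.5, cultures sampled hourly, flipped fraction per protease–substrate barcode pair counted by paired-end Illumina sequencing.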
Variant,area with substrate FNLYFQS,area with substrate GNLYFQS,area with substrate HNLYFQS,area with substrate INLYFQS,area with substrate LNLYFQS,area with substrate MNLYFQS,area with substrate SNLYFQS,area with substrate TNLYFQS,area with substrate VNLYFQS,area with substrate WNLYFQS
N206C,0.0519,0.054,0.0622,0.056,0.0671,0.0715,0.0497,0.0676,0.0676,0.0514
F218V,0.0649,,0.0491,0.0653,0.0795,0.0632,,,,0.0552
M125Y,,0.0468,0.0677,0.0712,0.0625,,0.0568,0.0611,,0.0587
N177Q,,0.0817,,,,,,,,
R51S,,0.059,,,,,0.0793,,,0.0634
R51H,,0.0916,,,,,,,,
R87V,,0.0572,0.0565,,,,0.0514,0.0749,,
R106N,,0.0698,0.074,,,,,0.0469,0.0721,
G150A,,0.0563,,,,,,,,
S209W,0.0705,,0.062,,,,,,,
S209K,0.12,,0.0564,,0.0594,,,0.0497,,
S209N,0.0719,,,,0.051,,0.0666,,,0.0677
S209G,0.0412,,0.0645,0.077,,0.0805,0.0577,,,0.0524
A170W,,0.0686,0.0583,0.0522,,,,0.0728,,0.0503
A170I,,0.0645,,0.0466,,,,,,
E103S,,0.0772,,,0.0631,0.0692,,0.0451,,0.0557
T31I,,0.0728,0.0785,0.0738,0.073,0.0917,,0.0659,0.0831,0.0576
R81P,,0.111,,,0.0719,,,,,
C131I,,0.0348,,0.058,,,,0.0773,0.0657,
T181E,,0.0479,0.0589,,0.0603,,,0.0547,,
H215F,0.0699,,,,0.0667,,,0.0478,0.0784,0.0801
H215L,0.0592,0.0672,0.0613,0.0659,0.0506,,,0.0642,,0.0571
V78N,,0.0535,0.0525,,,0.0793,0.0564,0.0488,,0.0558
N175S,,0.0621,,,,,,,0.0623,
I139T,,0.112,,0.0588,0.0729,0.0913,,0.0617,,

Variant,area with substrate FNLYFQS,area with substrate GNLYFQS,area with substrate HNLYFQS,area with substrate INLYFQS,area with substrate LNLYFQS,area with substrate MNLYFQS,area with substrate SNLYFQS,area with substrate TNLYFQS,area with substrate VNLYFQS,area with substrate WNLYFQS
Q194A,,0.0443,,,0.0525,0.0662,,0.064,0.07,
M188R,,0.0853,0.064,,,,,0.0814,,
V58D,,0.0327,0.0449,0.0476,0.059,0.0518,0.0468,0.0461,0.0539,
Q197I,,0.0712,0.0726,,,,0.0841,,,0.0618
L191Q,,0.0538,,0.0516,,0.0645,,0.04,,0.0493
S158V,,0.0594,0.0426,,0.0492,,,0.0504,,0.0436
S158L,,0.0533,0.042,,,,,,,
V220S,0.0637,0.0736,0.061,,0.0732,0.0583,0.0868,0.0661,0.0688,0.0677
F163A,,0.0668,,,,,,,,
L99V,,0.0643,0.0499,0.0673,,0.0616,0.0524,0.065,0.0799,0.0552
L99K,,0.0612,,,,,0.0388,0.0532,,
N116W,,0.0604,0.059,,0.0588,,,,0.046,
M88L,,0.0662,0.0707,0.0631,,0.0749,,0.0754,,0.0606
N53L,,0.0793,0.057,,0.0615,,,0.0569,,0.047
F92G,,0.0564,,,,,,,,0.0639
K148L,,0.0742,0.0776,,,,0.0705,0.0625,,0.0606
T129H,,0.121,0.0769,,,0.0669,,0.0783,,
S135L,,0.0666,0.0585,,0.0503,,0.0912,,0.0904,0.0619
G214F,0.0453,,,,,,,,,
K100Q,,0.0738,0.0743,0.0994,0.0568,0.0569,0.0565,0.0486,,
V200D,0.0517,,,,,,,0.0433,0.0551,0.061
N172P,,0.0588,0.0561,,0.0242,0.0339,0.0666,0.0605,,
L235T,0.0634,,0.0478,,0.0488,,,0.047,0.0729,0.0577
L235P,0.0876,,,0.0755,,0.0663,0.0653,0.0913,,0.0461
G35D,,0.0295,,0.0427,,,,,,0.0314

# Same assay, conditions: temperature: 34 °C; time window: 0-4 h after rhamnose induction
Variant,area with substrate YNLYFQS,area with substrate KNLYFQS,area with substrate PNLYFQS,area with substrate NNLYFQS,area with substrate QNLYFQS,area with substrate RNLYFQS
N206C,0.0649,,,,,
F218V,0.0019,0.06,0.0363,,,
M125Y,0.0705,,0.0661,,,
R51S,,0.0685,0.0571,,,
R87V,,,0.0561,,,
R106N,,0.0663,0.0734,0.0683,,
G150A,,,0.059,,,
S209W,0.075,,,,,
S209K,,,0.0633,,,
S209N,,0.0612,,,0.0628,
S209G,0.0549,0.0639,0.0648,0.0658,,
A170W,0.0524,0.0592,0.0513,,,
T31I,0.0686,,0.0739,0.0699,,
C131I,,,,,0.0686,
T181E,,0.0474,,,,
H215F,0.0767,0.0615,,0.0477,,
H215L,,,,0.0612,,
V78N,0.0552,,,0.0399,0.0534,
N175S,0.0604,,,0.0585,,
I139T,,,,0.0847,,
Q194A,,0.0675,0.0714,0.0638,,

Variant,area with substrate YNLYFQS,area with substrate KNLYFQS,area with substrate PNLYFQS,area with substrate NNLYFQS,area with substrate QNLYFQS,area with substrate RNLYFQS
M188R,0.0638,,0.0522,0.0722,,0.0619
V58D,0.0416,,,,,
Q197I,0.0607,,0.0429,,,
L191Q,0.0327,,0.0507,0.0604,0.0548,
S158V,,0.0468,0.043,0.0497,,0.0602
V220S,0.056,,0.0467,0.0658,,
F163A,,,0.0717,,,
L99V,0.0547,0.0617,0.0658,0.0584,,
L99K,,0.0585,,0.0683,,
N116W,0.0477,,0.088,0.0622,,
M88L,0.0698,,,,,
N53L,,,0.0628,,,
K148L,0.0635,,,,0.0575,
T129H,,,,0.066,,
G214F,,0.0677,,,,
K100Q,0.0585,,,,0.0561,
V200D,0.0574,,0.0749,,,0.0682
N172P,0.0413,0.0474,0.0934,,0.0555,
L235T,0.085,0.0712,0.0591,,,
L235P,,,0.0756,,,
G35D,,,0.0247,0.0394,,
